Results reported in patent US9433687B2, “Anti-Notch3 antibodies and antibody-drug conjugates” (Pfizer Inc., priority 2012, dated 2016).

Assays:
HCC2429 lung xenografts = test: HCC2429 lung xenograft model (ADCs); format: in vivo, mouse
Description: Similar in vivo experiments were performed with the HCC2429 lung cancer cell line as described above. To generate xenografts, nude (Nu/Nu) female mice were implanted subcutaneously with 3.5×10^6 HCC2429 cells in 50% Matrigel (BD Biosciences).
The HCC2429 lung model was also dosed intravenously Q4d×4 with PBS vehicle, rat-human chimeric anti-Notch3 ADCs and control huNeg-8.8 ADCs, at a dose of 5 mg/kg as provided in FIG. 16A.

[1] = tested on: MDA-MB-468 breast xenografts; test: MDA-MB-468 breast xenograft model; format: in vivo, mouse
Description: Similar in vivo experiments were performed with the MDA-MB-468 breast cancer cell line as described above. MDA-MB-468 cells are classified as a triple-negative breast cancer (TNBC) basal-like subtype since they lack expression of the estrogen receptor, progesterone receptor and human epidermal growth factor receptor 2 (HER2) (Lehmann, B D, et al, J Clin Invest. 2011; 121(7):2750-2767). To generate xenografts, female SCID Hairless Outbred (SHO) mice were orthotopically implanted with 10×10^6 MDA-MB-468 cells containing 50% Matrigel (BD Biosciences) in the mammary fat pad. […] FIGS. 13A and 13B show graphs of the data from Table 23 of anti-Notch3 ADCs with vc0101 linker-payloads compared to control huNeg-8.8 ADCs and PBS vehicle. FIGS. 14A and 14B show graphs of the data from Table 24 of the anti-Notch3 ADCs with vc6780 linker-payloads compared to control huNeg-8.8 ADC and PBS vehicle.
The MDA-MB-468 breast cancer model was also dosed intravenously Q4d×4 with PBS vehicle, rat-human chimeric anti-Notch3 ADCs and control huNeg-8.8 ADCs, at a dose of 5 mg/kg as provided in FIGS. 16B and 16C.

B1: hu28-vc6780 (conjugate)
heavy: EVQLVESGGGLVQPGGSLRLSCAASGFTFRDYGMTWVRQAPGKGLEWVAYISSGSNYIYYAEAVKGRFTISRDNAKNSLYLQMNSLRAEDTAVYYCARRGPFVLDAWGQGTLVTVSS[letters of human IgG1 constant region omitted]
light: DIQMTQSPSSLSASVGDRVTITCKASQSINRYLHWYQQKPGKAPKLLIYNANGLQTGVPSRFSGSGSGTDFTLTISSLQPEDFATYYCLQHNTWPDTFGGGTKVEIKRTVAAPSVFIFPPSDEQLKSGTASVVCLLNNFYPREAKVQWKVDNALQSGNSQESVTEQDSKDSTYSLSSTLTLSKADYEKHKVYACEVTHQGLSSPVTKSFNRGEC
tumor volume (mm^3 ± SEM) (HCC2429 lung xenografts; 1 mg/kg i.v. Q4d×4, DAY 1): 400 mm^3 | tumor volume (mm^3 ± SEM) (HCC2429 lung xenografts; 1 mg/kg i.v. Q4d×4, DAY 3): 579 mm^3 | tumor volume (mm^3 ± SEM) (HCC2429 lung xenografts; 1 mg/kg i.v. Q4d×4, DAY 5): 826 mm^3 | tumor volume (mm^3 ± SEM) (HCC2429 lung xenografts; 1 mg/kg i.v. Q4d×4, DAY 7): 1023 mm^3 | tumor volume (mm^3 ± SEM) (HCC2429 lung xenografts; 1 mg/kg i.v. Q4d×4, DAY 10): 1439 mm^3 | tumor volume (mm^3 ± SEM) (HCC2429 lung xenografts; 1 mg/kg i.v. Q4d×4, DAY 12): 1442 mm^3 | tumor volume (mm^3 ± SEM) (HCC2429 lung xenografts; 1 mg/kg i.v. Q4d×4, DAY −1): 245 mm^3 | tumor volume (mm^3 ± SEM) (HCC2429 lung xenografts; 3 mg/kg i.v. Q4d×4, DAY 1): 379 mm^3 | tumor volume (mm^3 ± SEM) (HCC2429 lung xenografts; 3 mg/kg i.v. Q4d×4, DAY 3): 493 mm^3 | tumor volume (mm^3 ± SEM) (HCC2429 lung xenografts; 3 mg/kg i.v. Q4d×4, DAY 5): 609 mm^3 | tumor volume (mm^3 ± SEM) (HCC2429 lung xenografts; 3 mg/kg i.v. Q4d×4, DAY 7): 638 mm^3 | tumor volume (mm^3 ± SEM) (HCC2429 lung xenografts; 3 mg/kg i.v. Q4d×4, DAY 10): 784 mm^3 | tumor volume (mm^3 ± SEM) (HCC2429 lung xenografts; 3 mg/kg i.v. Q4d×4, DAY 12): 883 mm^3 | tumor volume (mm^3 ± SEM) (HCC2429 lung xenografts; 3 mg/kg i.v. Q4d×4, DAY 14): 895 mm^3 | tumor volume (mm^3 ± SEM) (HCC2429 lung xenografts; 3 mg/kg i.v. Q4d×4, DAY 17): 1105 mm^3 | tumor volume (mm^3 ± SEM) (HCC2429 lung xenografts; 3 mg/kg i.v. Q4d×4, DAY 20): 1219 mm^3 | tumor volume (mm^3 ± SEM) (HCC2429 lung xenografts; 3 mg/kg i.v. Q4d×4, DAY 24): 1618 mm^3 | tumor volume (mm^3 ± SEM) (HCC2429 lung xenografts; 3 mg/kg i.v. Q4d×4, DAY −1): 245 mm^3 | tumor volume (mm^3 ± SEM) (HCC2429 lung xenografts; 10 mg/kg i.v. Q4d×4, DAY 1): 369 mm^3 | tumor volume (mm^3 ± SEM) (HCC2429 lung xenografts; 10 mg/kg i.v. Q4d×4, DAY 3): 318 mm^3 | tumor volume (mm^3 ± SEM) (HCC2429 lung xenografts; 10 mg/kg i.v. Q4d×4, DAY 5): 228 mm^3 | tumor volume (mm^3 ± SEM) (HCC2429 lung xenografts; 10 mg/kg i.v. Q4d×4, DAY 7): 172 mm^3 | tumor volume (mm^3 ± SEM) (HCC2429 lung xenografts; 10 mg/kg i.v. Q4d×4, DAY 10): 143 mm^3 | tumor volume (mm^3 ± SEM) (HCC2429 lung xenografts; 10 mg/kg i.v. Q4d×4, DAY 12): 134 mm^3 | tumor volume (mm^3 ± SEM) (HCC2429 lung xenografts; 10 mg/kg i.v. Q4d×4, DAY 14): 115 mm^3 | tumor volume (mm^3 ± SEM) (HCC2429 lung xenografts; 10 mg/kg i.v. Q4d×4, DAY 17): 127 mm^3 | tumor volume (mm^3 ± SEM) (HCC2429 lung xenografts; 10 mg/kg i.v. Q4d×4, DAY 20): 149 mm^3 | tumor volume (mm^3 ± SEM) (HCC2429 lung xenografts; 10 mg/kg i.v. Q4d×4, DAY 24): 206 mm^3 | tumor volume (mm^3 ± SEM) (HCC2429 lung xenografts; 10 mg/kg i.v. Q4d×4, DAY 27): 290 mm^3 | tumor volume (mm^3 ± SEM) (HCC2429 lung xenografts; 10 mg/kg i.v. Q4d×4, DAY 31): 378 mm^3 | tumor volume (mm^3 ± SEM) (HCC2429 lung xenografts; 10 mg/kg i.v. Q4d×4, DAY 34): 551 mm^3 | tumor volume (mm^3 ± SEM) (HCC2429 lung xenografts; 10 mg/kg i.v. Q4d×4, DAY 38): 718 mm^3 | tumor volume (mm^3 ± SEM) (HCC2429 lung xenografts; 10 mg/kg i.v. Q4d×4, DAY 42): 1011 mm^3 | tumor volume (mm^3 ± SEM) (HCC2429 lung xenografts; 10 mg/kg i.v. Q4d×4, DAY −1): 244 mm^3 | tumor volume (mm^3 ± SEM) ([1]; Table 24, 1 mg/kg i.v. Q4d×4, DAY 4): 462 mm^3 | tumor volume (mm^3 ± SEM) ([1]; Table 24, 1 mg/kg i.v. Q4d×4, DAY 7): 452 mm^3 | tumor volume (mm^3 ± SEM) ([1]; Table 24, 1 mg/kg i.v. Q4d×4, DAY 11): 512 mm^3 | tumor volume (mm^3 ± SEM) ([1]; Table 24, 1 mg/kg i.v. Q4d×4, DAY 14): 507 mm^3 | tumor volume (mm^3 ± SEM) ([1]; Table 24, 1 mg/kg i.v. Q4d×4, DAY 19): 538 mm^3 | tumor volume (mm^3 ± SEM) ([1]; Table 24, 1 mg/kg i.v. Q4d×4, DAY 22): 551 mm^3 | tumor volume (mm^3 ± SEM) ([1]; Table 24, 1 mg/kg i.v. Q4d×4, DAY 25): 575 mm^3 | tumor volume (mm^3 ± SEM) ([1]; Table 24, 1 mg/kg i.v. Q4d×4, DAY 28): 654 mm^3 | tumor volume (mm^3 ± SEM) ([1]; Table 24, 1 mg/kg i.v. Q4d×4, DAY 32): 653 mm^3 | tumor volume (mm^3 ± SEM) ([1]; Table 24, 1 mg/kg i.v. Q4d×4, DAY 35): 734 mm^3 | tumor volume (mm^3 ± SEM) ([1]; Table 24, 1 mg/kg i.v. Q4d×4, DAY 40): 761 mm^3 | tumor volume (mm^3 ± SEM) ([1]; Table 24, 1 mg/kg i.v. Q4d×4, DAY 43): 816 mm^3 | tumor volume (mm^3 ± SEM) ([1]; Table 24, 1 mg/kg i.v. Q4d×4, DAY 46): 859 mm^3 | tumor volume (mm^3 ± SEM) ([1]; Table 24, 1 mg/kg i.v. Q4d×4, DAY 49): 948 mm^3 | tumor volume (mm^3 ± SEM) ([1]; Table 24, 1 mg/kg i.v. Q4d×4, DAY 53): 1008 mm^3 | tumor volume (mm^3 ± SEM) ([1]; Table 24, 3 mg/kg i.v. Q4d×4, DAY 4): 394 mm^3 | tumor volume (mm^3 ± SEM) ([1]; Table 24, 3 mg/kg i.v. Q4d×4, DAY 7): 399 mm^3 | tumor volume (mm^3 ± SEM) ([1]; Table 24, 3 mg/kg i.v. Q4d×4, DAY 11): 380 mm^3 | tumor volume (mm^3 ± SEM) ([1]; Table 24, 3 mg/kg i.v. Q4d×4, DAY 14): 401 mm^3 | tumor volume (mm^3 ± SEM) ([1]; Table 24, 3 mg/kg i.v. Q4d×4, DAY 19): 438 mm^3 | tumor volume (mm^3 ± SEM) ([1]; Table 24, 3 mg/kg i.v. Q4d×4, DAY 22): 414 mm^3 | tumor volume (mm^3 ± SEM) ([1]; Table 24, 3 mg/kg i.v. Q4d×4, DAY 25): 491 mm^3 | tumor volume (mm^3 ± SEM) ([1]; Table 24, 3 mg/kg i.v. Q4d×4, DAY 28): 497 mm^3 | tumor volume (mm^3 ± SEM) ([1]; Table 24, 3 mg/kg i.v. Q4d×4, DAY 32): 524 mm^3 | tumor volume (mm^3 ± SEM) ([1]; Table 24, 10 mg/kg i.v. Q4d×4, DAY 4): 395 mm^3 | tumor volume (mm^3 ± SEM) ([1]; Table 24, 10 mg/kg i.v. Q4d×4, DAY 7): 350 mm^3 | tumor volume (mm^3 ± SEM) ([1]; Table 24, 10 mg/kg i.v. Q4d×4, DAY 11): 248 mm^3 | tumor volume (mm^3 ± SEM) ([1]; Table 24, 10 mg/kg i.v. Q4d×4, DAY 14): 154 mm^3 | tumor volume (mm^3 ± SEM) ([1]; Table 24, 10 mg/kg i.v. Q4d×4, DAY 19): 65 mm^3 | tumor volume (mm^3 ± SEM) ([1]; Table 24, 10 mg/kg i.v. Q4d×4, DAY 22): 25 mm^3 | tumor volume (mm^3 ± SEM) ([1]; Table 24, 10 mg/kg i.v. Q4d×4, DAY 25): 26 mm^3 | tumor volume (mm^3 ± SEM) ([1]; Table 24, 10 mg/kg i.v. Q4d×4, DAY 28): 15 mm^3 | tumor volume (mm^3 ± SEM) ([1]; Table 24, 10 mg/kg i.v. Q4d×4, DAY 32): 0 mm^3 | tumor volume (mm^3 ± SEM) ([1]; Table 24, 10 mg/kg i.v. Q4d×4, DAY 35): 0 mm^3 | tumor volume (mm^3 ± SEM) ([1]; Table 24, 10 mg/kg i.v. Q4d×4, DAY 40): 0 mm^3 | tumor volume (mm^3 ± SEM) ([1]; Table 24, 10 mg/kg i.v. Q4d×4, DAY 43): 0 mm^3 | tumor volume (mm^3 ± SEM) ([1]; Table 24, 10 mg/kg i.v. Q4d×4, DAY 46): 0 mm^3 | tumor volume (mm^3 ± SEM) ([1]; Table 24, 10 mg/kg i.v. Q4d×4, DAY 49): 0 mm^3 | tumor volume (mm^3 ± SEM) ([1]; Table 24, 10 mg/kg i.v. Q4d×4, DAY 53): 0 mm^3 | tumor volume (mm^3 ± SEM) ([1]; Table 24, 10 mg/kg i.v. Q4d×4, DAY 56): 0 mm^3 | tumor volume (mm^3 ± SEM) ([1]; Table 24, 10 mg/kg i.v. Q4d×4, DAY 60): 0 mm^3 | tumor volume (mm^3 ± SEM) ([1]; Table 24, 10 mg/kg i.v. Q4d×4, DAY 63): 0 mm^3 | tumor volume (mm^3 ± SEM) ([1]; Table 24, 10 mg/kg i.v. Q4d×4, DAY 67): 0 mm^3
